# Test results taken from PubChem BioAssay AID588855 (National Center for Advancing Translational Sciences (NCATS), 2011).
# Screen size: about 410,000 compounds; about 5,000 (1.2%) were called active. The shares of active, inactive and inconclusive entries below differ from those in the screen. The call rests on the fitted dose curve; in most records, active means well fitted inhibition curve with a large enough effect; inconclusive means small, poorly fitted or top-dose-only effect; inactive means no such curve, though single readings can be large or run the other way. Potencies of inconclusive entries are doubtful fits and often do not repeat.
# Assay: qHTS for Inhibitors of TGF-b; further: nearly all actives have a fitted effect of over 65% in size
# Conditions: HepG2 CAGA-GFP TGF-b/SMAD3 reporter, GFP fluorescence, 18 h, TGF-beta stimulated, 500 pg/mL final; series mostly up to 46.1 µM
# Outline: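 Inhibition of TGF-beta-driven CAGA-GFP reporter expression in HEPG2 cells is measured by cellular GFP fluorescence after 18 h stimulation with 500 pg/mL recombinant TGF-beta in 1% FBS medium at 37 degrees C.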
# Potency means the concentration at half of the fitted maximal effect; tags describe the fitted curve by direction and shape.
row,SMILES,Potency
1,CCOC(=O)c1c(NC(=O)c2ccc(N3C(=O)C4C5C=CC(C5)C4C3=O)cc2)sc2c1CCCC2 (stereo not drawn),inactive
2,O=[N+]([O-])c1ccc(/C=N/n2cnc3ccccc32)s1,"inconclusive: 5.62 µM [inhibitor, full curve]"
3,CCNC(=O)Cc1ccc(S(=O)(=O)N2CCOCC2)s1,"inconclusive: 35.5 µM [inhibitor, single point]"
4,Cn1c(=O)c2c(nc(NCc3ccc4c(c3)OCO4)n2Cc2ccc(F)cc2)n(C)c1=O,"inconclusive: 12.6 µM [inhibitor, partial curve, poor fit]"
5,O=C(COc1ccc(Cl)cc1)NCC(c1ccco1)S(=O)(=O)c1ccc(Cl)cc1 (stereo not drawn),"inconclusive: 25.1 µM [inhibitor, single point]"
6,CC1CC(C)CN(S(=O)(=O)c2cc3c(cc2Cl)NC(=O)CO3)C1 (stereo not drawn),"inconclusive: 1.26 µM [inhibitor, partial curve, poor fit]"
7,O=C(CCc1ccccc1)NC(c1cccs1)c1cc(Cl)c2cccnc2c1O (stereo not drawn),"inconclusive: 2.82 µM [inhibitor, single point]"
8,Cc1cc(C)c2oc(-c3ccc(C)c(NC(=O)/C=C/c4ccco4)c3)nc2c1,"inconclusive: 7.08 µM [inhibitor, partial curve, poor fit]"
9,COc1ccccc1N1CCN(C(=O)CCS(=O)(=O)c2cc(Br)cc3c2N(C(C)=O)CC3)CC1,"inconclusive: 35.5 µM [inhibitor, single point]"
10,CCN1CCN(Cc2cccc(Oc3ccc(Cl)cc3)c2)CC1,"inconclusive: 11.2 µM [inhibitor, partial curve, poor fit]"
11,Cc1no[n+]([O-])c1COc1ccccc1/C=N/n1nnnc1N,"inconclusive: 11.2 µM [inhibitor, partial curve, poor fit]"
12,CC(C(=O)Nc1ccc(S(=O)(=O)N2CCCC2)cc1)N(C)Cc1ccc(F)cc1 (stereo not drawn),"inconclusive: 35.5 µM [inhibitor, single point]"
13,COc1ccc(-n2cnc3sc4c(c3c2=O)CCCC4)cc1,inactive
14,COC(=O)CCC/C=C1/SCC(NC(=O)c2ccccc2)C1=O (stereo not drawn),"inconclusive: 35.5 µM [inhibitor, single point]"
15,Cc1ccc(C2=NOC(C)(c3nnc(-c4ccc(F)cc4)o3)C2)cc1 (stereo not drawn),"inconclusive: 1 µM [inhibitor, partial curve, poor fit]"
16,Cc1cccc(OCC(=O)Nc2cccc(C(=O)Nc3ccccc3C(=O)O)c2)c1,"inconclusive: 22.4 µM [inhibitor, single point]"
17,CC1(C(=O)NCC2CCOCC2)Cc2c(-c3cccc(C(F)(F)F)c3)ccnc2O1 (stereo not drawn),"inconclusive: 15.8 µM [inhibitor, single point]"
18,CCOC(=O)C1=C(N)N(c2ccc(C)cc2)C2=C(C(=O)CCC2)C1c1cccs1 (stereo not drawn),active: 11.2 µM
19,COc1ccc(-c2cc(CNc3nc(NCc4ccccc4OC)nc4ccsc34)on2)cc1,"inconclusive: 15.8 µM [inhibitor, single point]"
20,COc1cccc(Nc2nc3ccccc3nc2NS(=O)(=O)c2cccs2)c1,inactive
21,Nc1c(C(=O)Nc2ccccc2)nnn1-c1ccc2c(c1)OCCO2,inactive

row,SMILES,Potency
1,COc1ccc(C(=O)N/N=C(\C)CC(=O)Nc2cccc(C(F)(F)F)c2)cc1,"inconclusive: 15.8 µM [inhibitor, partial curve, poor fit]"
2,Cc1c(C(=O)N2CCC(C)CC2)oc2ccc3c(c12)C(O)CC1(CCCCC1)O3 (stereo not drawn),"inconclusive: 11.2 µM [inhibitor, partial curve, poor fit]"
3,O=C(Nc1ccc(S(=O)(=O)N2CCCC2)cc1)c1ccc(CN2CCOCC2)cc1,"inconclusive: 5.01 µM [inhibitor, partial curve]"
4,CCOC(=O)C1(CC2CCCCO2)CCN(C(=O)Nc2ccccc2)CC1 (stereo not drawn),"inconclusive: 4.47 µM [inhibitor, single point]"
5,O=C(C[C@H]1C[C@H](C(=O)N2CCOCC2)[C@@]2(CCC3CCCC3)c3[nH]c4cc(-c5ccco5)ccc4c3CCN2C1=O)NCc1cccc(C(F)(F)F)c1,"inconclusive: 6.31 µM [inhibitor, partial curve, poor fit]"
6,CC(C)n1cnc2c(Nc3cccc(Cl)c3)nc(NCCCO)nc21,"inconclusive: 25.1 µM [inhibitor, single point]"
7,Cc1cc(C)nc(NC(=O)c2cccc([N+](=O)[O-])c2)c1,"inconclusive: 6.31 µM [inhibitor, partial curve, poor fit]"
8,COc1ccc(NS(=O)(=O)c2ccc3nc(COc4ccc(Cl)c(C)c4)[nH]c3c2)cc1,"inconclusive: 17.8 µM [inhibitor, partial curve, poor fit]"
9,COc1cc2nc3n(c(=O)c2cc1OC)-c1cc2ccccc2cc1C(=O)NC3CC(C)C (stereo not drawn),"inconclusive: 10 µM [inhibitor, partial curve, poor fit]"
10,COc1ccc(C(=O)Oc2cc3c4c(c2)C(C)=CC(C)(C)N4C(=O)C3=O)cc1OC,inactive
11,CCOc1ccc(NC(=O)C2C(c3ccccc3)C2(Cl)Cl)cc1 (stereo not drawn),"inconclusive: 12.6 µM [inhibitor, single point]"
12,C[C@H](CO)N1C[C@H](C)[C@H](CN(C)C(=O)OCc2ccccc2)OCc2cnnn2CCCC1=O,inactive
13,NS(=O)(=O)c1ccc(CCNC(=O)c2cc(-c3ccc(Br)cc3)nc3ccccc23)cc1,"inconclusive: 15.8 µM [inhibitor, single point]"
14,CC1(C)CC(N=c2cc(-c3ccccc3)oc3ccc(Cl)cc23)CC(C)(C)N1,"inconclusive: 35.5 µM [inhibitor, single point]"
15,CCc1noc(C)c1C(=O)Nc1ccc(S(=O)(=O)N2CCCC(C)C2)cc1 (stereo not drawn),"inconclusive: 35.5 µM [inhibitor, single point]"
16,COCC(C)NC(=O)CSc1nc2ccccc2n1CCc1ccccc1 (stereo not drawn),inactive
17,COc1cc(C(=O)Oc2c(CN3CCOCC3)cc(Cl)c3cccnc23)cc(OC)c1OC,active: 3.98 µM
18,CC(NC(=O)Cn1cccc1C(=O)c1ccccc1)c1ccc2c(c1)OCCO2 (stereo not drawn),inactive
19,CCN(CC)CCN1CCN(c2cncc(-c3ccc4ccccc4c3)n2)CC1,"inconclusive: 35.5 µM [inhibitor, single point]"
20,COc1cc(C(=O)NNC(=O)C2CCC2)cc(OC)c1OC,inactive
21,O=C(c1ccc(Cl)cc1)C1CCN(C(=O)NC2CCCCC2)CC1,"inconclusive: 6.31 µM [inhibitor, partial curve, poor fit]"

row,SMILES,Potency
1,CCOc1ccc2noc3c2c1C(=O)c1ccccc1-3,"inconclusive: 22.4 µM [inhibitor, single point]"
2,Cc1ccc2oc(-c3cc(NC(=O)CC(C)C)ccc3Cl)nc2c1,"inconclusive: 35.5 µM [inhibitor, single point]"
3,CCN1CCC(NC(=O)Nc2cc(Cl)ccc2OC)CC1,inactive
4,COC(=O)N1C2CCCCC2=NN(c2ccccc2)N1C(=O)OC (stereo not drawn),inactive
5,Cc1ccc(O)c(N=Cc2cc(Cc3ccccc3)cc([N+](=O)[O-])c2O)c1,"inconclusive: 25.1 µM [inhibitor, single point]"
6,COC(=O)C(Cc1ccc(O)cc1)NC(=O)C(C)Oc1ccccc1 (stereo not drawn),"inconclusive: 7.08 µM [inhibitor, partial curve, poor fit]"
7,c1ccc(CNc2c(-c3cccc(SC4CCCCC4)c3)nc3ccccn23)cc1,"inconclusive: 35.5 µM [inhibitor, single point]"
8,CCOC(=O)c1c(C)[nH]c(C)c1S(=O)(=O)N1CCCC(C(=O)NCc2ccccc2Cl)C1 (stereo not drawn),"inconclusive: 6.31 µM [inhibitor, full curve, poor fit]"
9,Cc1ccc(NC(=S)NNC(=O)c2ccc(N3CCOCC3)c([N+](=O)[O-])c2)cc1Cl,"inconclusive: 35.5 µM [inhibitor, single point]"
10,COc1ccccc1CNC(=O)CN(c1ccccc1OC)S(C)(=O)=O,inactive
11,COc1ccc(-c2[nH]n(-c3ccc([N+](=O)[O-])cc3)c(=O)c2C=NCc2ccncc2)cc1,"inconclusive: 10 µM [inhibitor, partial curve, poor fit]"
12,Clc1ccc2c(c1)-c1ccccc1C1=NCCN12,"inconclusive: 22.4 µM [inhibitor, single point]"
13,O=C(NC1CC1)C1CCN(C2CCN(C(=O)Cc3ccc4c(c3)OCO4)CC2)CC1,inactive
14,COc1ccc(-c2nc(-c3cccc(C)c3)no2)cc1OC,inactive
15,COc1ccc(CNC(=O)c2cc(C)nc3ccccc23)cc1OC,"inconclusive: 0.631 µM [inhibitor, full curve]"
16,CCc1cccc(NC(c2ccccc2)c2nnc(-c3ccccc3F)o2)c1 (stereo not drawn),"inconclusive: 12.6 µM [inhibitor, single point]"
17,Fc1ccc2[nH]c3c(N4CCN(c5ccccc5)CC4)ncnc3c2c1,"inconclusive: 11.2 µM [inhibitor, partial curve, poor fit]"
18,CN1OC[C@@H]2CN(Cc3ccccc3)[C@H](c3cccc(Oc4ccccc4)c3)C[C@@H]21,"inconclusive: 35.5 µM [inhibitor, single point]"
19,O=C(CSc1nc2ccccc2s1)NCCOc1ccccc1,"inconclusive: 20 µM [inhibitor, single point]"
20,CCc1ccccc1Nc1ncnc2c1cnn2-c1ccc(C)cc1C,"inconclusive: 2.82 µM [inhibitor, full curve]"
21,Cc1ccc(NC(=O)CSc2nc3c(sc4ccccc43)c(=O)n2CCCC(=O)NC2CCCC2)cc1C,inactive
